The other results are listed elsewhere or left out.
Test system: PF3D7_0420300 AP2 domain 1 (GST-tagged)
Assay: gcPBM binding intensity (ln(normalized median fluorescence intensity)); higher = stronger DNA binding
Method in brief: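 An Agilent 4 × 180k array carrying primer-extended double-stranded 36-bp intergenic genomic probes and negative controls received GST-tagged P. falciparum DNA-binding domains expressed in E. coli, about 25 μg on average, for 1 h. The binding buffer contained 1× PBS, 1% milk, 0.2 mg/ml BSA, 0.5% salmon testes DNA and 0.03% Triton X-100. Binding intensity is the top Masliner-normalised natural-log median intensity across replicate spots of either probe orientation, read after Alexa488 anti-GST antibody staining and a 488 nm scan.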

Row | Sequence | gcPBM binding intensity (ln)
1 | AATATTTATATTTAGTGTACAGAAATAAAAAAAAAA [XGTACX_site6066] | 9.2
2 | ATATACATTTAAATGTGTACATAATAAAATAAAAAA [XGTACX_site8170] | 9.35
3 | CAAAAAAAAAAAAAAACACACATTAAATTAGAAAGA [CACACA_site7271] | 9.54
4 | GCTAATTTATTTTGCAGTACATATATAATAATATAT [XGTACX_site478] | 9.12
5 | TTTTTATTTAATAGTTGTACATTGAAAAATATGTAT [XGTACX_site3025] | 9.03
6 | TGATTAAATAAATATATATATTTATATATTATACAG [CACACA_negctrl_site1596] | 8.93
7 | TATATATATATATATGTGCACTGGACATATTTTTAT [GTGCAC_site9721] | 9.3
8 | CAAATAAATATTAAAAGTACACACAGATACACTAAT [XGTACX_site3749] | 9.88
9 | GCTCTATCAAAAAAATGTACACATATTATCATTCAT [XGTACX_site143] | 9.27
10 | AATTAAAATAGTAATACACACTTCATAGGAAATGAT [CACACA_site5045] | 9.33
11 | TATGTATCAAATAAATGTACATATATATATATATAT [XGTACX_site2189] | 9.07
12 | AAATTTTTTATGAACACACAAATACACGCACTCAAA [CACACA_site7286] | 9.66
13 | AATAATAAAATAAAGGCATGCACAATATGCTATAAA [TGCATGCA_site645] | 9.55
14 | TAAAATATATAAAACTGTACATTTTAAAGGCACAAC [XGTACX_site8342] | 9.56
15 | CTGAAGGAAAAAGAAAGTACTTTTTTTTTTTTGAAG [XGTACX_site5973] | 8.61
16 | CCTTTATTTTATATGTGTACTAAATTGTATATATAT [XGTACX_site8717] | 9.33
17 | ATGTTTTATAAAAGGCGTACACATATGCTTAAGTAA [XGTACX_site6232] | 9.37
18 | AAAAAAAAAATATCATGTACAAATATAATAAAATTT [XGTACX_site3896] | 9.27
19 | TATAGCAAAAAATTTACACACATGTTTTTTCTATAC [CACACA_site325] | 9.57
20 | GGCATTTTATGAAGTAGTACCATAAATATTAAAGAT [XGTACX_site5287] | 9.27
21 | TTTTTACTATTTATATGACTAAAAATATATTGAATA [CACACA_negctrl_site188] | 8.93
22 | TAAATTAATAAACAAGTGCATATATATATATATATA | 9.2
23 | GTCATATTAATATGTACACACATATTTATATTTATA [CACACA_site6798] | 9.49

Row | Sequence | gcPBM binding intensity (ln)
24 | TTTTATGTAACATCACGTACTTATATTTAAGTATTC [XGTACX_site7459] | 9.26
25 | CAAGCACACGGACACACACACACACGCGCACGCACA [CACACA_site6307] | 10.2
26 | CAATTTATTTTTATTACACACTATCCAAGTAATTTC [CACACA_site7402] | 9.32
27 | AATATAATATAATGCACACATAAAACAAAAAAAAAA [CACACA_site3012] | 9.79
28 | AAATATATCATACAAAGTACTTGGAATTAATATATA [XGTACX_site8907] | 9.14
29 | TCTTTTAAATAACAACATAAATAAATAAATAAATAA [GTGCAC_negctrl_site319] | 9.01
30 | GTTGATACATGAAGCTGTACATAATATTTGTCATTT [XGTACX_site8628] | 9.42
31 | TAATTTTTCCAACTTTGTACAGATATATTAATAAAA [XGTACX_site7856] | 8.86
32 | TTTTTTTTTTTTTGCACACACCATATTTATAGAAAT [CACACA_site5772] | 9.59
33 | TAAAATTAATTTCTGTTGCACTTATTATTAATTAAC | 9.27
34 | ATATTATACCCGTGTACACATTATAACCATATATAA [CACACA_site5933] | 9.46
35 | TATATGTATAGAAAATGTACATATAAATATATATAT [XGTACX_site3420] | 9.26
36 | CATTATTTACCGCCGTGTACGTAATGAGAAATTAAA [XGTACX_site4662] | 9
37 | TTATTTCAAATTAATTTACACACTTCATACTAAAAG [CACACA_site9039] | 9.26
38 | TAATAAAAAAAGTGCACACACATAATATTTATATAT [CACACA_site7548] | 9.6
39 | TTTATTTATTATTAAAGTACTAAATTACATTATTAT [XGTACX_site6624] | 9.05
40 | TATTTAATTACATGAACACACATTAGATATTTTTAA [CACACA_site7405] | 9.16
41 | TCTTGTATATACAGTAGTACTAAAAATTATTAAATA [XGTACX_site7896] | 9
42 | ACATACAAGAATTAAACACACACAAAATATAAATTC [CACACA_site8985] | 10.1
43 | TGTTTTTTGTTCTTTACAAAAAAAAAAAAAAAAAAA [GTGCAC_negctrl_site61] | 8.33
44 | TTATGTTGTAAATGCACACATACAAATACAGATACA [CACACA_site4876] | 9.5
45 | GAAAACAAATATGTAGCACACATTCACATAATATAT [CACACA_site8731] | 9.48
46 | ATAAATATAAAAATTTGTACATATATAGGTATAGGT [XGTACX_site1735] | 9.57

Row | Sequence | gcPBM binding intensity (ln)
47 | ATTATAATGGTAAAGTGTACAAATTTTTATTACACC [XGTACX_site5274] | 9.26
48 | TATCAATATTAAAAAGTGCAAAATAAAATATAAAAT [GTGCAC_site9486] | 9.58
49 | TATATTATATATTGGGGTACATATATATAAATATAA [XGTACX_site2296] | 9.04
50 | TAATTTCTTATGTATTGTACATATAATATATGATAT [XGTACX_site4898] | 9.12
51 | AAAATAAATAGATAAGCACACAAGCATATAGACATA [CACACA_site7958] | 9.72
52 | AATATATTTATGCTCATGCACTTTTTTTTTTTTTTT [GTGCAC_site9654] | 9.35
53 | TATATTTACATTGTAACACACATGAAATATTTATAT [CACACA_site6178] | 9.32
54 | ATGTACATTTTTTTCACACATACATTAATTTATGAG [CACACA_site5801] | 9.27
55 | TATGTTATATTATAAGGATAAATTTTGATTATATAA [TGCATGCA_negctrl_site600] | 8.83
56 | AGAATAAAAAGGAACACACACACACCCATATATATA [CACACA_site3590] | 10.1
57 | TAGACTAATCCCAAAAGTACAGAAAAATTATATTAT [XGTACX_site8663] | 9.29
58 | TTATTAAATTTTTTTTGTACTTATATATATATATAT [XGTACX_site2443] | 9.25
59 | ATTATTATATAGTGTGCATGCAATATTAATAAAACC [TGCATGCA_site245] | 9.67
60 | TATGAATGTATATGTTGTACATATAAATATTTATAT [XGTACX_site1146] | 9.22
61 | TAAGCTTGTAACAGTTTACACACTAATATTTATAAA [CACACA_site3907] | 9.23
62 | AATAAATATATTACATATATGTGTAGTATTTTTTTA [TGCATGCA_negctrl_site268] | 9.25
63 | ATAGTAAACGAAATAAAAAGATTAGCATAATATCCT [CACACA_negctrl_site1730] | 9.47
64 | ATTGTTTATATTGATTGTACTCATTTTTTTTTTATT [XGTACX_site1946] | 9.85
65 | TCCTGTGATTATATAACACACATTATTGCTTATAAG [CACACA_site1518] | 9.41
66 | ATATATTATATATATTACAACTTAAGAATATACATA [TGCATGCA_negctrl_site371] | 9.16
67 | ATTATATATATATATACACACACACCCTAAAAATAT [CACACA_site8463] | 9.9
68 | ATATATTGAAAAAAATGTACGTATTTTTTTATGTTA [XGTACX_site4654] | 9.11
69 | AATCAAAATTAATTAACACACAATTTTAATATTCTT [CACACA_site2063] | 9.31

Row | Sequence | gcPBM binding intensity (ln)
70 | ACACATATATATTATTATTATATAATATATATATAT [CACACA_negctrl_site1545] | 9.21
71 | ACATGTTTTATGTGCACACAAAGTTGTTATGAGGTT [CACACA_site4031] | 9.64
72 | ATATAATATTTCATGTGGACACATTTTATGATTGTA [XGTACX_site8770] | 9.4
73 | TCCATGCAGAAACACACACACAAAAAAAAATTCTTT [CACACA_site4099] | 9.83
74 | AAAAAAATTACATATCCATTTTAACATAATAAATAG [GTGCAC_negctrl_site618] | 9.09
75 | TTTTTGCAAAAAGAAATAATTTTATTTTAGTTCGGA [CACACA_negctrl_site1718] | 8.78
76 | ATTCTATTCTCCTTCACACACAAAAATATTTCATCA [CACACA_site2360] | 9.77
77 | ATCTATGGGTAGTATACACACTGTATATTTAGGAAT [CACACA_site5569] | 9.34
78 | TTACGAATAAAACAGTGTACATTGAATTTCTATGAG [XGTACX_site4771] | 9.2
79 | TATGTACAAATATGTACACACACACCGATATATATA [CACACA_site4487] | 9.96
80 | ACTAATAACAAAAGCTTGCACTTTTTTTTTCCTAAT | 9.16
81 | TATAATTTTCTTAGTAGTACATTTTAAATCTACTAC [XGTACX_site2621] | 8.99
82 | TGTATCCACATATGTACACACATATATCTGTATATG [CACACA_site5668] | 9.51
83 | AAAAAAAAAAAAAAAAGTACAAAAATTATATTAAGA [XGTACX_site4255] | 9.21
84 | ATATAAGATTACAAAAATTATGTGTAAATATTTAAT [XGTACX_negctrl_site448] | 9.1
85 | ACCTATATAAATTATACACACAAATATAAATATATA [CACACA_site2843] | 9.66
86 | AATTATATATAACGTAGTACATATTATAAACCACGT [XGTACX_site8816] | 9.46
87 | TATAATAATAATGATAGTACGTATGAGTTCAAGAAA [XGTACX_site4918] | 9.4
88 | TGTCATAAAACCGTTTGTACATATTAATAGACACCT [XGTACX_site4520] | 9.14
89 | TTGTTATTCCACCGTTGTACAGTTATATACATACAC [XGTACX_site8296] | 9.47

Reference: the supplement of paper PMC11417369
